{
  "source": "paper PMC4336329",
  "about": "(PLoS ONE, 2015)",
  "note": "Among all 310,000 compounds or so, about 2,200 (0.71%) showed an effect of 50% or more. The effect is printed as a negative number. This is one part of the list.",
  "data": [
    {"biological_target": "human ether-à-go-go-related gene (hERG) potassium channel (human, UniProt Q12809)", "sequence (Q12809 whole entry, looked up)": "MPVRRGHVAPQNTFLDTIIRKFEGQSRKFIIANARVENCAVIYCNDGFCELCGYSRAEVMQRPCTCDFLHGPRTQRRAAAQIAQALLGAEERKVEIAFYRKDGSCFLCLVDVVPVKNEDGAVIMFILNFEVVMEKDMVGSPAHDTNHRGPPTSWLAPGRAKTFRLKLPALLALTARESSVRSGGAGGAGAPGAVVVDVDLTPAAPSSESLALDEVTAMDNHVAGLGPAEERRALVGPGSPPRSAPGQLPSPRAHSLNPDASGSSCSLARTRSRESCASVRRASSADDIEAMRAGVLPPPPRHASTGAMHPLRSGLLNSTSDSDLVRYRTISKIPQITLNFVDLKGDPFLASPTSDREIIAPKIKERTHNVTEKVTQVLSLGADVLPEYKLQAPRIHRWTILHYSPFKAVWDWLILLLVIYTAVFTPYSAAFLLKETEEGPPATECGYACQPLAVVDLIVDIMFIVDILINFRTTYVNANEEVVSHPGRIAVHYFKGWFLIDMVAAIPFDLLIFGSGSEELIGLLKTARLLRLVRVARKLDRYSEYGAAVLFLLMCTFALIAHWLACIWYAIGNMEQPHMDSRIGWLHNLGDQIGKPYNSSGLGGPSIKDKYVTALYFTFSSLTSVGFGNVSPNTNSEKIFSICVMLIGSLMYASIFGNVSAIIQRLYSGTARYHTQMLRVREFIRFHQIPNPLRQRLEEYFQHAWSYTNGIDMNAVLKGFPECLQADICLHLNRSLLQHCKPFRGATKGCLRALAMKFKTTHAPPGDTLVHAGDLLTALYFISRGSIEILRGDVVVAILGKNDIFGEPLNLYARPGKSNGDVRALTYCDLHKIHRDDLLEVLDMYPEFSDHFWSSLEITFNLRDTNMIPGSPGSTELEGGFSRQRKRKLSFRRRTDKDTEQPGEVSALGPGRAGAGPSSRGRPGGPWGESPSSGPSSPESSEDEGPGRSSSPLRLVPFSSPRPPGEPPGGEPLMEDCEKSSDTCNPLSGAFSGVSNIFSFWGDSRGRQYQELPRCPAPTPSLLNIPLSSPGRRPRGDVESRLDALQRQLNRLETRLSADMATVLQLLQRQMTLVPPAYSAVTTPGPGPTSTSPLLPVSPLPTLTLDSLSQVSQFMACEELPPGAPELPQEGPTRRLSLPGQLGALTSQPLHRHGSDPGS", "assay": "primary screen, population patch clamp on CHO cells stably expressing hERG", "units": {"hERG current change (%, negative = inhibition) at 1uM": "%"}, "values": [
      {"molecule": "COC(=O)C(C(=O)NCC1CCCO1)C1CCCC1", "note": "(stereo not shown)", "hERG current change (%, negative = inhibition) at 1uM": 15},
      {"molecule": "CC(O)[C@H]1CNC(=O)C(=O)N1CC1CCCCC1", "note": "(stereo partly shown)", "hERG current change (%, negative = inhibition) at 1uM": 14.2},
      {"molecule": "CCN(c1ccccc1)S(=O)(=O)c1ccc(C(=O)Nc2cccc(C)n2)cc1", "hERG current change (%, negative = inhibition) at 1uM": 9.71},
      {"molecule": "O=C(CSc1nc2ccccc2c(=O)n1-c1ccccc1Cl)NC1CCS(=O)(=O)C1", "note": "(stereo not shown)", "hERG current change (%, negative = inhibition) at 1uM": 12.9},
      {"molecule": "CCC(=O)Nc1cnc(NC(=O)c2cccc(F)c2)cc1C", "hERG current change (%, negative = inhibition) at 1uM": -7.96},
      {"molecule": "O=C1CCC([N+](=O)[O-])C(c2cccc3ccccc23)N1", "note": "(stereo not shown)", "hERG current change (%, negative = inhibition) at 1uM": 3.47},
      {"molecule": "CC(C)N(c1ccccc1)c1ncnc(NCCC(=O)O)c1[N+](=O)[O-]", "hERG current change (%, negative = inhibition) at 1uM": 7.27},
      {"molecule": "COc1cc(S(=O)(=O)Nc2ccc(C)cc2)ccc1N=Cc1c(C)[nH]n(-c2ccccc2)c1=O", "hERG current change (%, negative = inhibition) at 1uM": 16.6},
      {"molecule": "CCOC(=O)CNc1c(-c2ccc(OC)cc2)nc2ccc(Cl)cn12", "hERG current change (%, negative = inhibition) at 1uM": -68.4},
      {"molecule": "O=C(Nc1ccc(Cl)cn1)C1CCN(S(=O)(=O)c2cccs2)CC1", "hERG current change (%, negative = inhibition) at 1uM": -12.1},
      {"molecule": "CC(=O)c1sc(NC(=O)c2ccccc2F)nc1C", "hERG current change (%, negative = inhibition) at 1uM": 4.9},
      {"molecule": "Cc1ccc(-c2cccc(C(=O)NCc3ccccc3)n2)c2ccccc12", "hERG current change (%, negative = inhibition) at 1uM": 12.7},
      {"molecule": "CCc1ccccc1NC(=O)COc1ccc2oc(-c3ccc(OC)cc3)cc(=O)c2c1", "hERG current change (%, negative = inhibition) at 1uM": 9.33},
      {"molecule": "O=C(OCCCCN1C(=O)c2ccccc2C1=O)c1ccc(Br)o1", "hERG current change (%, negative = inhibition) at 1uM": 12.8},
      {"molecule": "C/C(=C\\C(=O)c1ccccc1)NNC(=O)c1ccc(Cl)cc1", "hERG current change (%, negative = inhibition) at 1uM": 7.46},
      {"molecule": "CC(C)(C)N(Cc1ccccc1)C(=O)c1ccc(Cl)cc1[N+](=O)[O-]", "hERG current change (%, negative = inhibition) at 1uM": 18.3},
      {"molecule": "CCOC(=O)c1sc(NC(=O)c2ccc(CC)s2)nc1C", "hERG current change (%, negative = inhibition) at 1uM": 1.85},
      {"molecule": "CN1CCN(S(=O)(=O)c2ccc(CNC(=O)c3ccccc3)s2)CC1", "hERG current change (%, negative = inhibition) at 1uM": 12.8},
      {"molecule": "Cc1sc2ncnc(N3CCN(Cc4ccccc4)CC3)c2c1-c1ccccc1", "hERG current change (%, negative = inhibition) at 1uM": 11.7},
      {"molecule": "CCC1(c2ccc(F)cc2)NC(=O)N(CC(=O)Nc2ccc(S(N)(=O)=O)cc2)C1=O", "note": "(stereo not shown)", "hERG current change (%, negative = inhibition) at 1uM": 8.71},
      {"molecule": "O=c1c2ccccc2nc(/C=C/c2ccc3c(c2)OCO3)n1-c1cccc(O)c1", "hERG current change (%, negative = inhibition) at 1uM": 3.69},
      {"molecule": "N#Cc1cc([N+](=O)[O-])ccc1NCCN1CCOCC1", "hERG current change (%, negative = inhibition) at 1uM": -8.64},
      {"molecule": "Oc1ccc(Cc2ccc(Cl)cc2)c(O)c1", "hERG current change (%, negative = inhibition) at 1uM": 10.6},
      {"molecule": "CCN1C(=O)c2c(C)nc3ccccc3c2C1=O", "hERG current change (%, negative = inhibition) at 1uM": 2.48},
      {"molecule": "Cc1nn(C(C)C(=O)NCCCN2CCCC2)c(=O)c2nn(-c3ccccc3)c(C)c12", "note": "(stereo not shown)", "hERG current change (%, negative = inhibition) at 1uM": 10.8}
    ]}
  ]
}
